{"source": "the supplement of paper PMC11880418", "note": "Counter-ions that a name gives are not always drawn. Some of the results follow. The data scatter; read single values as rough.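 Further: High-content imaging of ALDEFLUOR-stained cells with Hoechst-labelled nuclei in 384-well plates, triplicate wells, scored as Z-score against 0.1% DMSO vehicle, negative meaning fewer ALDHbr cells.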"}
{"tested_on": "MKN45", "experiment": "ALDHbr (CSC) cell proportion score relative to DMSO vehicle (ratio to DMSO); higher = more CSC (ALDHbr) cells remaining", "conditions": "10 µM; 72 h"}
{"smiles": "C[C@]12CCC(=O)C=C1CC[C@@H]1[C@@H]2[C@@H](O)C[C@@]2(C)[C@H]1CC[C@]2(O)C(=O)CO", "note": "[Hydrocortisone base]", "ALDHbr": 1.05}
{"smiles": "C[C@@](Cc1ccc(O)c(O)c1)(NN)C(=O)O", "note": "[Carbidopa]", "ALDHbr": 1.25}
{"smiles": "CCCCc1nc(Cl)c(CO)n1Cc1ccc(-c2ccccc2-c2nnn[nH]2)cc1", "note": "[Losartan]", "ALDHbr": 0.987}
{"smiles": "O=C(CCNNC(=O)c1ccncc1)NCc1ccccc1", "note": "[Nialamide]", "ALDHbr": 1.11}
{"smiles": "O=C(Nc1ccccc1)OCC(CN1CCCCC1)OC(=O)Nc1ccccc1", "note": "(stereo not drawn) [Diperodon hydrochloride]", "ALDHbr": 1.21}
{"smiles": "CN1Cc2c(N)cccc2C(c2ccccc2)C1", "note": "(stereo not drawn) [Nomifensine maleate]", "ALDHbr": 1.01}
{"smiles": "CCN1C(=O)NC(c2ccccc2)C1=O", "note": "(stereo not drawn) [Ethotoin]", "ALDHbr": 0.977}
{"smiles": "NCCNCCNCCNCCN", "note": "[Tetraethylenepentamine pentahydrochloride]", "ALDHbr": 0.775}
{"smiles": "Cc1c(Cl)cccc1Nc1ncccc1C(=O)O", "note": "[Clonixin Lysinate]", "ALDHbr": 1.14}
{"smiles": "Cn1nnc2c(C(N)=O)ncn2c1=O", "note": "[Temozolomide]", "ALDHbr": 1.05}
{"smiles": "C[n+]1ccccc1/C=N/O", "note": "[Pralidoxime chloride]", "ALDHbr": 1.14}
{"smiles": "CC(C)Oc1ccc2c(=O)c(-c3ccccc3)coc2c1", "note": "[Ipriflavone]", "ALDHbr": 0.382}
{"smiles": "CCC(NC(C)C)C(O)c1ccc(O)c(O)c1", "note": "(stereo not drawn) [Isoetharine mesylate salt]", "ALDHbr": 0.523}
{"smiles": "NC(=O)c1cccnc1", "note": "[Nicotinamide]", "ALDHbr": 0.936}
{"smiles": "CCOc1ccc2nc(S(N)(=O)=O)sc2c1", "note": "[Ethoxzolamide]", "ALDHbr": 0.179}
{"smiles": "CC(C)(C)NC(=O)[C@H]1CC[C@H]2[C@@H]3CC[C@H]4NC(=O)C=C[C@]4(C)[C@H]3CC[C@]12C", "note": "[Finasteride]", "ALDHbr": 0.651}
{"smiles": "CC[N+](CC)(CC(=O)Nc1c(C)cccc1C)Cc1ccccc1", "note": "[Denatonium benzoate]", "ALDHbr": 1.26}
{"smiles": "CC1=C(CC(=O)O)c2cc(F)ccc2/C1=C\\c1ccc([S+](C)[O-])cc1", "note": "(stereo not drawn) [Sulindac]", "ALDHbr": 1.36}
{"smiles": "Nc1ncnc2c1ncn2C1OC(COP(=O)(O)O)C(O)C1O", "note": "(stereo not drawn) [Adenosine 5'-monophosphate monohydrate]", "ALDHbr": 1.1}
{"smiles": "COC(=O)N/N=C/c1c[n+]([O-])c2ccccc2[n+]1[O-]", "note": "[Carbadox]", "ALDHbr": 1.12}
{"smiles": "NC(=O)N1c2ccccc2CC(=O)c2ccccc21", "note": "[Oxcarbazepine]", "ALDHbr": 1.1}
{"smiles": "Clc1ccc(Cn2c(CN3CCCC3)nc3ccccc32)cc1", "note": "[Clemizole hydrochloride]", "ALDHbr": 0.569}
{"smiles": "OCCN1C[C@H](O)[C@@H](O)[C@H](O)[C@H]1CO", "note": "[Miglitol]", "ALDHbr": 1.07}
{"smiles": "COc1ccc2c(c1)C(=O)N(CCc1ccc(S(=O)(=O)NC(=O)NC3CCCCC3)cc1)C(=O)C2(C)C", "note": "[Gliquidone]", "ALDHbr": 1}
{"smiles": "COC1=C(OC)C(=O)C(CCCCCCCCCCO)=C(C)C1=O", "note": "[Idebenone]", "ALDHbr": 1.11}
{"smiles": "Cc1ncc([N+](=O)[O-])n1CC(O)CCl", "note": "(stereo not drawn) [Ornidazole]", "ALDHbr": 1.11}
{"smiles": "O=C(CCCN1CCC(O)(c2ccc(Br)cc2)CC1)c1ccc(F)cc1", "note": "[Bromperidol]", "ALDHbr": 0.94}
{"smiles": "CCN1CCCC1CNC(=O)c1cc(S(N)(=O)=O)ccc1OC", "note": "(stereo not drawn) [Sulpiride]", "ALDHbr": 0.894}
{"smiles": "OCCN1CCN(CCCN2c3ccccc3Sc3ccc(Cl)cc32)CC1", "note": "[Perphenazine]", "ALDHbr": 0.734}
{"smiles": "CCOC(=O)C1=C(COCCN)NC(C)=C(C(=O)OC)C1c1ccccc1Cl", "note": "(stereo not drawn) [Amlodipine]", "ALDHbr": 1.04}
{"smiles": "C(=C\\c1ccccc1)/CN1CCN(C(c2ccccc2)c2ccccc2)CC1", "note": "[Cinnarizine]", "ALDHbr": 0.757}
{"smiles": "Clc1ccc(CO/N=C(\\Cn2ccnc2)c2ccc(Cl)cc2Cl)c(Cl)c1", "note": "[Oxiconazole Nitrate]", "ALDHbr": 0.93}
{"smiles": "COc1ccccc1OCC(O)CN1CCN(CC(=O)Nc2c(C)cccc2C)CC1", "note": "(stereo not drawn) [Ranolazine]", "ALDHbr": 1}
{"smiles": "COc1ccc(-c2cc(=S)ss2)cc1", "note": "[Anethole-trithione]", "ALDHbr": 0.53}
{"smiles": "CN1CCC(=C2c3ccccc3CCc3cccnc32)CC1", "note": "[Azatadine maleate]", "ALDHbr": 1.44}
{"smiles": "c1ccc(-c2ccc(C(c3ccccc3)n3ccnc3)cc2)cc1", "note": "(stereo not drawn) [Bifonazole]", "ALDHbr": 0.672}
{"smiles": "CCCCC1=NC2(CCCC2)C(=O)N1Cc1ccc(-c2ccccc2-c2nnn[nH]2)cc1", "note": "[Irbesartan]", "ALDHbr": 1.12}
{"smiles": "CO[C@H]1/C=C/O[C@@]2(C)Oc3c(C)c(O)c4c(O)c(c(/C=N/N5CCN(C)CC5)c(O)c4c3C2=O)NC(=O)/C(C)=C\\C=C\\[C@H](C)[C@H](O)[C@@H](C)[C@@H](O)[C@@H](C)[C@H](OC(C)=O)[C@@H]1C", "note": "[Rifampicin]", "ALDHbr": 1.15}
{"smiles": "O=C1NCCN1c1ncc([N+](=O)[O-])s1", "note": "[Niridazole]", "ALDHbr": 1}
{"tested_on": "PANC1", "experiment": "ALDHbr (CSC) cell proportion score relative to DMSO vehicle (ratio to DMSO); breast (SUM159) / gastric (MKN45) / pancreatic (PANC1) / colon cancer lines; ALDHbr cells have high ALDH activity and are rich in cancer stem cells (CSC); higher = more CSC (ALDHbr) cells remaining", "conditions": "10 µM; 72 h"}
{"smiles": "C[C@]12CCC(=O)C=C1CC[C@@H]1[C@@H]2[C@@H](O)C[C@@]2(C)[C@H]1CC[C@]2(O)C(=O)CO", "note": "[Hydrocortisone base]", "ALDHbr": 0.756}
{"smiles": "C[C@@](Cc1ccc(O)c(O)c1)(NN)C(=O)O", "note": "[Carbidopa]", "ALDHbr": 0.933}
{"smiles": "CCCCc1nc(Cl)c(CO)n1Cc1ccc(-c2ccccc2-c2nnn[nH]2)cc1", "note": "[Losartan]", "ALDHbr": 0.875}
{"smiles": "O=C(CCNNC(=O)c1ccncc1)NCc1ccccc1", "note": "[Nialamide]", "ALDHbr": 0.968}
{"smiles": "O=C(Nc1ccccc1)OCC(CN1CCCCC1)OC(=O)Nc1ccccc1", "note": "(stereo not drawn) [Diperodon hydrochloride]", "ALDHbr": 0.665}
{"smiles": "CN1Cc2c(N)cccc2C(c2ccccc2)C1", "note": "(stereo not drawn) [Nomifensine maleate]", "ALDHbr": 0.752}
{"smiles": "CCN1C(=O)NC(c2ccccc2)C1=O", "note": "(stereo not drawn) [Ethotoin]", "ALDHbr": 0.855}
{"smiles": "NCCNCCNCCNCCN", "note": "[Tetraethylenepentamine pentahydrochloride]", "ALDHbr": 0.8}
{"smiles": "Cc1c(Cl)cccc1Nc1ncccc1C(=O)O", "note": "[Clonixin Lysinate]", "ALDHbr": 0.969}
{"smiles": "Cn1nnc2c(C(N)=O)ncn2c1=O", "note": "[Temozolomide]", "ALDHbr": 0.898}
{"smiles": "C[n+]1ccccc1/C=N/O", "note": "[Pralidoxime chloride]", "ALDHbr": 0.91}
{"smiles": "CC(C)Oc1ccc2c(=O)c(-c3ccccc3)coc2c1", "note": "[Ipriflavone]", "ALDHbr": 0.627}
{"smiles": "CCC(NC(C)C)C(O)c1ccc(O)c(O)c1", "note": "(stereo not drawn) [Isoetharine mesylate salt]", "ALDHbr": 0.868}
{"smiles": "NC(=O)c1cccnc1", "note": "[Nicotinamide]", "ALDHbr": 0.844}
{"smiles": "CCOc1ccc2nc(S(N)(=O)=O)sc2c1", "note": "[Ethoxzolamide]", "ALDHbr": 0.451}
{"smiles": "CC(C)(C)NC(=O)[C@H]1CC[C@H]2[C@@H]3CC[C@H]4NC(=O)C=C[C@]4(C)[C@H]3CC[C@]12C", "note": "[Finasteride]", "ALDHbr": 0.737}
{"smiles": "CC[N+](CC)(CC(=O)Nc1c(C)cccc1C)Cc1ccccc1", "note": "[Denatonium benzoate]", "ALDHbr": 0.893}
{"smiles": "CC1=C(CC(=O)O)c2cc(F)ccc2/C1=C\\c1ccc([S+](C)[O-])cc1", "note": "(stereo not drawn) [Sulindac]", "ALDHbr": 1.16}
{"smiles": "Nc1ncnc2c1ncn2C1OC(COP(=O)(O)O)C(O)C1O", "note": "(stereo not drawn) [Adenosine 5'-monophosphate monohydrate]", "ALDHbr": 0.807}
{"smiles": "COC(=O)N/N=C/c1c[n+]([O-])c2ccccc2[n+]1[O-]", "note": "[Carbadox]", "ALDHbr": 1.08}
{"smiles": "NC(=O)N1c2ccccc2CC(=O)c2ccccc21", "note": "[Oxcarbazepine]", "ALDHbr": 0.993}
{"smiles": "Clc1ccc(Cn2c(CN3CCCC3)nc3ccccc32)cc1", "note": "[Clemizole hydrochloride]", "ALDHbr": 0.756}
{"smiles": "OCCN1C[C@H](O)[C@@H](O)[C@H](O)[C@H]1CO", "note": "[Miglitol]", "ALDHbr": 1.04}
{"smiles": "COc1ccc2c(c1)C(=O)N(CCc1ccc(S(=O)(=O)NC(=O)NC3CCCCC3)cc1)C(=O)C2(C)C", "note": "[Gliquidone]", "ALDHbr": 0.983}
{"smiles": "COC1=C(OC)C(=O)C(CCCCCCCCCCO)=C(C)C1=O", "note": "[Idebenone]", "ALDHbr": 1.1}
{"smiles": "Cc1ncc([N+](=O)[O-])n1CC(O)CCl", "note": "(stereo not drawn) [Ornidazole]", "ALDHbr": 0.829}
{"smiles": "O=C(CCCN1CCC(O)(c2ccc(Br)cc2)CC1)c1ccc(F)cc1", "note": "[Bromperidol]", "ALDHbr": 0.836}
{"smiles": "CCN1CCCC1CNC(=O)c1cc(S(N)(=O)=O)ccc1OC", "note": "(stereo not drawn) [Sulpiride]", "ALDHbr": 0.961}
{"smiles": "OCCN1CCN(CCCN2c3ccccc3Sc3ccc(Cl)cc32)CC1", "note": "[Perphenazine]", "ALDHbr": 0.807}
{"smiles": "CCOC(=O)C1=C(COCCN)NC(C)=C(C(=O)OC)C1c1ccccc1Cl", "note": "(stereo not drawn) [Amlodipine]", "ALDHbr": 0.833}
{"smiles": "C(=C\\c1ccccc1)/CN1CCN(C(c2ccccc2)c2ccccc2)CC1", "note": "[Cinnarizine]", "ALDHbr": 0.803}
{"smiles": "Clc1ccc(CO/N=C(\\Cn2ccnc2)c2ccc(Cl)cc2Cl)c(Cl)c1", "note": "[Oxiconazole Nitrate]", "ALDHbr": 1.28}
{"smiles": "COc1ccccc1OCC(O)CN1CCN(CC(=O)Nc2c(C)cccc2C)CC1", "note": "(stereo not drawn) [Ranolazine]", "ALDHbr": 0.927}
{"smiles": "COc1ccc(-c2cc(=S)ss2)cc1", "note": "[Anethole-trithione]", "ALDHbr": 0.701}
{"smiles": "CN1CCC(=C2c3ccccc3CCc3cccnc32)CC1", "note": "[Azatadine maleate]", "ALDHbr": 1.04}
{"smiles": "c1ccc(-c2ccc(C(c3ccccc3)n3ccnc3)cc2)cc1", "note": "(stereo not drawn) [Bifonazole]", "ALDHbr": 1.34}
{"smiles": "CCCCC1=NC2(CCCC2)C(=O)N1Cc1ccc(-c2ccccc2-c2nnn[nH]2)cc1", "note": "[Irbesartan]", "ALDHbr": 0.965}
{"smiles": "CO[C@H]1/C=C/O[C@@]2(C)Oc3c(C)c(O)c4c(O)c(c(/C=N/N5CCN(C)CC5)c(O)c4c3C2=O)NC(=O)/C(C)=C\\C=C\\[C@H](C)[C@H](O)[C@@H](C)[C@@H](O)[C@@H](C)[C@H](OC(C)=O)[C@@H]1C", "note": "[Rifampicin]", "ALDHbr": 0.965}
{"smiles": "O=C1NCCN1c1ncc([N+](=O)[O-])s1", "note": "[Niridazole]", "ALDHbr": 1.02}
